Measured values published in PubChem BioAssay AID624417 (National Center for Advancing Translational Sciences (NCATS), 2012).
Hit rate of the full screen: of about 410,000 compounds, about 6,400 (1.6%) were called active. The shares of active, inactive and inconclusive entries below differ from those in the screen. Calls follow the shape of the dose curve; as a rule, active = well fitted inhibition curve with a large enough effect; inconclusive = small, poorly fitted or top-dose-only effect; inactive = no such curve, though single readings can be large or run the other way. No potency is given beside an inconclusive call; the fits are too rough.
Also: nearly all actives have a fitted effect of over 55% in size.
Potency is read from the fitted curve at half-maximal effect; tags tell the direction and shape of the fitted curve.

What follows are compounds tested against Glucagon-like peptide 1 receptor (Homo sapiens) (UniProt P43220) (assay: qHTS of GLP-1 Receptor Inverse Agonists (Inhibition Mode)). Conditions: HEK293 GLP-1R CRE-luciferase, luminescence, 24 h, GLP-1R form is constitutively active; series mostly up to 38.3 µM.
UniProt P43220, sequence (P43220 whole entry, looked up): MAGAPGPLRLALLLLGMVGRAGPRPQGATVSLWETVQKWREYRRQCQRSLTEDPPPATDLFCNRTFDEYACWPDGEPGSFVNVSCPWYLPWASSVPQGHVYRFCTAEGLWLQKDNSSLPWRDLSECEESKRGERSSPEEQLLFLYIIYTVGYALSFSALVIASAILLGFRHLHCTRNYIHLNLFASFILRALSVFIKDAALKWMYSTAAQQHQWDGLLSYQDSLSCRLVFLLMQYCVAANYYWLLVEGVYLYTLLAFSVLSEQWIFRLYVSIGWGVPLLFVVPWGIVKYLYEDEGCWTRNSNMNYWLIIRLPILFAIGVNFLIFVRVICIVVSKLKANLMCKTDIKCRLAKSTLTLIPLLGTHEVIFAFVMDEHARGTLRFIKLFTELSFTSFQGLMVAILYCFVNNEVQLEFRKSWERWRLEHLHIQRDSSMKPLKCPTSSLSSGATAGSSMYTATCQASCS
How it was run: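 HEK293 cells stably co-expressing constitutively active GLP-1R and a cAMP-responsive luciferase reporter were seeded in DMEM with 10% Nu serum, given compounds after 12 h, and incubated 24 h at 37 deg C. Luminescence was then read.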
For COc1ccc(Nc2ccccc2NC(=O)c2ccccc2Br)cc1, the Potency was inconclusive [inhibitor, single point]. For Cc1cc(-c2csc(Nc3ccccn3)n2)ccc1F, the Potency was inconclusive [inhibitor, partial curve, poor fit]. In the case of CCOC(=O)c1c(NC(=O)C2C3C=CC(C3)C2C(=O)O)sc2c1CCC(CC)C2 (configuration not stated), the Potency is reported as inconclusive [inhibitor, partial curve, poor fit]. For CCN(CC)C(=O)N1c2ccccc2C=Cc2ccccc21, the Potency was active: 5.62 µM. In the case of Cc1nc(SCC(=O)Nc2nccs2)c(C#N)c(C)c1C, the Potency is reported as inconclusive [inhibitor, full curve, poor fit]. In the case of Cc1ccc(OCC(=O)Nc2cc(C(C)(C)C)on2)cc1C, the Potency is reported as inconclusive [inhibitor, partial curve, poor fit]. Cc1cc(NC2CCCC2)n2nc(C)c(-c3ccccc3)c2n1 was tested, and the Potency was inconclusive [inhibitor, full curve]. CCS(=O)(=O)c1ncc(Cl)c(C(=O)Nc2ccc(S(=O)(=O)N3CCCC(C)C3)cc2)n1 (configuration not stated) was tested, and the Potency was inconclusive [inhibitor, single point]. For O=C(OCC(=O)N1CCN(C(=O)c2ccco2)CC1)c1cc(-c2ccccc2)nc2ccccc12, the Potency was inconclusive [inhibitor, partial curve, poor fit]. With COC(=O)c1sc2cccc(F)c2c1S(=O)(=O)Nc1ccc(N(C)C)cc1 the Potency was “inactive”. In the case of O=C(CNc1cccc2ccccc12)N/N=C/c1ccc[nH]1, the Potency is reported as inconclusive [inhibitor, partial curve]. COc1ccccc1C(C(=O)c1ccccc1)c1ccc2ccccc2c1 (configuration not stated) was tested, and the Potency was inconclusive [inhibitor, partial curve]. In the case of Cc1nn(C(C)C(=O)NCCCc2ccccc2)c(=O)c2nn(-c3ccccc3)c(C)c12 (configuration not stated), the Potency is reported as inconclusive [inhibitor, partial curve, poor fit]. For CCn1c(=O)n(-c2ccc(F)cc2)c(=O)c2sc3ccccc3c21, the Potency was “inactive”. With CCOC(=O)c1ccc(NC(=S)N(CCCN2CCCC2)Cc2ccco2)cc1 the Potency was inconclusive [inhibitor, partial curve, poor fit]. With C[C@H]1CN([C@@H](C)CO)C(=O)Cc2cc(NS(C)(=O)=O)ccc2O[C@@H]1CN(C)Cc1ccc(Cl)c(Cl)c1 the Potency was inconclusive [inhibitor, single point]. With O=C1C(CCc2ccccc2)ON=C(c2cnccn2)N1Cc1ccc(F)cc1 (configuration not stated) the Potency was inconclusive [inhibitor, partial curve, poor fit].
